Experiments:
[1] = tested on: HCC1569 breast cancer cells subcutaneous xenograft; assay: Efficacy in HCC1569 tumor-bearing mice; type: in vivo, mouse; settings: 1 mg/kg tail vein 1 time per week; end of experiment, 21 days
Protocol: To evaluate anti-tumor effect of the antibody-drug conjugates of the present application in a female NOD/SCID mouse model with subcutaneous xenograft of HCC1569 breast cancer cells. • Blank control (negative control group): […] The growth of the tumors was monitored. […] The day of administration for each group was defined as day 0. The administration was performed by tail vein injection 1 time per week, and the experiment ended 21 days after the administration. The tumor volume and weight were measured twice a week, and the data were recorded. At the end of the experiment, mice were euthanized and tumor growth inhibition TGI % was calculated as follows: (TGI=(1−(Ti−T0)/(Vi−V0))). Ti: mean tumor volumes of the treatment groups and the positive control group on day i of administration; TO: mean tumor volumes of the treatment groups and the positive control group on day 0 of administration; Vi: mean tumor volume of the negative control group on day i of administration; V0: mean tumor volume of the negative control group on day 0 of administration. Data were analyzed using Excel 2016 statistical software, wherein the mean value was calculated as avg; the SD value was calculated as STDEV; and the P value of the difference between groups was calculated as TTEST.

MDA-MB-453 cells = assay: Internalization of antibody-drug conjugates with pHrodo in MDA-MB-453 cells; type: cell-based; settings: 10 nM
Protocol: The up-taken of the antibody-drug conjugate of the present application against the HER3 target on MDA-MB-453 cells expressing HER3 was detected. The cell, the antibody-drug conjugate (ADC) with a fixed concentration, and an internalization indicating reagent pHrodo were co-incubated, and the endocytosis capacity of the antibody-drug conjugate was evaluated by observing the number of fluorescent signal bright dots generated by pHrodo which entered the cell along with the antibody-drug conjugate in the cell at different time points.
• 1. Cell culture: MDA-MB-453 cells were cultured using a 10% FBS Leibovitz's L-15 medium. • 2. Cell preparation: MDA-MB-453 cells in logarithmic phase were taken, washed with PBS once, and digested with 2-3 mL of Versene for 2-3 min. After the cells were digested completely, 10-15 mL of cell culture was added to elute the digested cells. The eluate was centrifuged at 1000 rpm for 5 min, and the supernatant was discarded. The resulting cells were resuspended in cell culture to give a single cell suspension, which was adjusted to a viable cell density of […] cells/mL. • 3. Cell plating: the cell suspension was added to a 96-well cell culture plate at 50 μL/well. The culture plate was incubated in an incubator for 18 h (37° C., 5% CO2). • 4. Sample adding: the test antibody-drug conjugate was co-incubated with Fab-pHrodo to form a complex, adjusted to a concentration of 10 nM, and added to the cells at 50 μL/well. • 5. Culturing of cells: the culture plate was incubated in an incubator for 2, 4, 6, 24, or 48 h (37° C., 5% CO2). • 6. Plate reading: when the corresponding time point was reached, the 96-well cell culture plate was taken out, Hoechst33342 was added to perform cell nucleus staining, the plate was placed in operatta CLS for photographing, and the number of cells and the number of fluorescent bright dots in each cell were read. The average number of cell fluorescent dots was calculated using Harmony® imaging and analysis software.

B1: ADC-1-X2: anti-Her3 antibody hu3F8-2 conjugated with linker-payload X2, DAR 7.53 (conjugate)
heavy: QVQLQESGPGLVKPSETLSLTCTVSGYSITSAYYWNWIRQPFGKGLEWMGYISYDGRNNFNPSLKNRVTISRDTSKNQFSLKLSSVTAADTAVYYCARDGDYDYFDYWGQGTTVTVSS[human IgG1 constant region left out]
light: DIQMTQSPSSLSASVGDRVTITCRASQDISNYLNWYQQKPGKAPKLLIYYTSILHSGVPSRFSGSGSGTDYTFTISSLQPEDIATYFCQQGDTLPPTFGGGTKLEIKRTVAAPSVFIFPPSDEQLKSGTASVVCLLNNFYPREAKVQWKVDNALQSGNSQESVTEQDSKDSTYSLSSTLTLSKADYEKHKVYACEVTHQGLSSPVTKSFNRGEC
Q: What does the source list for B1?
A: Mean tumor volume [1]: 25.84 ± 14.38 mm^3; Tumor growth inhibition % [1]: 97.60%; Average number of fluorescence dots in cells (MDA-MB-453 cells; assay time 2 h): 2.1; Average number of fluorescence dots in cells (MDA-MB-453 cells; assay time 4 h): 2.3; Average number of fluorescence dots in cells (MDA-MB-453 cells; assay time 6 h): 2.5; Average number of fluorescence dots in cells (MDA-MB-453 cells; assay time 24 h): 3.4; Average number of fluorescence dots in cells (MDA-MB-453 cells; assay time 48 h): 3.7
